Experimental data: PubChem BioAssay AID2528 (National Center for Advancing Translational Sciences (NCATS), 2010)
Among all 350,000 compounds or so, about 700 (0.2%) were called active. This list was built around the results that the source calls inconclusive (neither active nor inactive); the mix of calls is not that of the screen. The call rests on the fitted dose curve; in most records, active means well fitted inhibition curve with a large enough effect; inconclusive means small, poorly fitted or top-dose-only effect; inactive means flat fitted curve, though single readings scatter. No potency is given beside an inconclusive call; the fits are too rough.

molecular target: RecQ-like DNA helicase BLM (Homo sapiens) (UniProt P54132); assay: qHTS Assay for Inhibitors of Bloom's syndrome helicase (BLM); conditions: recombinant BLM DNA unwinding, fluorescence dequenching; series mostly up to 56.1 µM; activity change, negative = inhibition: at the top concentration; further: nearly all actives have a fitted effect of over 35% in size;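 on activity change, negative = inhibition: plate controls were vehicle for no effect and no enzyme for full effect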
Potency means the concentration at half of the fitted maximal effect; tags describe the fitted curve by direction and shape.

Chain of UniProt P54132 (P54132 whole entry, looked up): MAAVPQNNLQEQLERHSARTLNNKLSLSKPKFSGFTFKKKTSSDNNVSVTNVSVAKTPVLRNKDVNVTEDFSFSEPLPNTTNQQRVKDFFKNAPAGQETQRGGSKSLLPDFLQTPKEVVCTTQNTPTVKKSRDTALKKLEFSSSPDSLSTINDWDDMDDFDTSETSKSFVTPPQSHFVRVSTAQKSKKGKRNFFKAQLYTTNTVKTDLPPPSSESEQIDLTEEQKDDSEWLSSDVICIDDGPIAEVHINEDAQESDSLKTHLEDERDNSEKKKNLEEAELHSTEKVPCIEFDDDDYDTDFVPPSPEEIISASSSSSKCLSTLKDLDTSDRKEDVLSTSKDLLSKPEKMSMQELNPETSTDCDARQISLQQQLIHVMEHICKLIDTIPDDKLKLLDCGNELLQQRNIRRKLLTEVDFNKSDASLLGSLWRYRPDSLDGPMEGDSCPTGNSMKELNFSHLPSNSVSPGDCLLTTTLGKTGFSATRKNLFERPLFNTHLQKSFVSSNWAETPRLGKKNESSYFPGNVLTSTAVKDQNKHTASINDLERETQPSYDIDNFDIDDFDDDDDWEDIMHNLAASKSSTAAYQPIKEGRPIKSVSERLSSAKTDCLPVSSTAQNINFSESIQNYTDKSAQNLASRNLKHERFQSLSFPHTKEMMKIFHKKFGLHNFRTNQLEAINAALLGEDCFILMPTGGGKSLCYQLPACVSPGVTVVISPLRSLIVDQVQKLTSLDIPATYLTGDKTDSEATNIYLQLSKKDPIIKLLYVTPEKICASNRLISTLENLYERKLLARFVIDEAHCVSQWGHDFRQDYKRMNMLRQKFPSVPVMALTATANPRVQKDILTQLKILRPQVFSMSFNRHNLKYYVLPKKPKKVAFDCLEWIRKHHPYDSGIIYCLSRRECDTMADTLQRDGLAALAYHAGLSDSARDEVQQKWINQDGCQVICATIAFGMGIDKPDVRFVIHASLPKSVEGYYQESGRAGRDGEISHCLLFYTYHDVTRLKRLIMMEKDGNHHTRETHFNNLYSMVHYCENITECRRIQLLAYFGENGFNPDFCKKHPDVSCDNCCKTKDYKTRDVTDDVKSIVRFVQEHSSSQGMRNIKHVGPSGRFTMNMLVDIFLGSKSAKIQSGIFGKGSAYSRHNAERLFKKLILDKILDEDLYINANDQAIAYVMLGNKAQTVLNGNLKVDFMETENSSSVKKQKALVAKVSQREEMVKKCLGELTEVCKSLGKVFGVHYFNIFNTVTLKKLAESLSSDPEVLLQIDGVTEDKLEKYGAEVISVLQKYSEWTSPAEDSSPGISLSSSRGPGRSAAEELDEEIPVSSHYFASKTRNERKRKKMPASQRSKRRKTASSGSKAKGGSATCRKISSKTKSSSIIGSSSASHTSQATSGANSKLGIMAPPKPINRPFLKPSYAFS

Structure (SMILES)	activity change, negative = inhibition	Potency
CCOC(=O)N1CCN(Cc2nc3cc(NC(=O)c4ccccc4Cl)ccc3n2C(C)C)CC1	inactive: -9.96%	
Cc1ccc(C)n1C(Cc1ccccc1)C(=O)O (centres undefined)		inconclusive [inhibitor, single point]
COc1cc(C(=O)Nc2nccs2)ccc1OCc1c(C)noc1C	inactive: -0.69%	
CCOc1ccc(C(=O)Cc2ccc3oc(C(=O)O)cc3c2)c(O)c1		inconclusive [inhibitor, single point]
CCOC(=O)c1sc2nc3c(SCCC(=O)O)cc(C(=O)c4cc(OC)ccc4O)cn3c(=O)c2c1C		inconclusive [inhibitor, full curve, poor fit]
CCc1nnc(NC(=O)c2cc(-c3ccccn3)nc3ccccc23)s1	inactive: -0.486%	
Cc1csc2nc(COC(=O)c3cccc(NC(=O)c4cccc(Cl)c4)c3)cc(=O)n12		inconclusive [inhibitor, partial curve]
O=C(O)CCCN1C(=O)/C(=C/c2cn(-c3ccccc3)nc2-c2cccs2)SC1=S		inconclusive [inhibitor, single point]
Nc1c(S(=O)(=O)O)cc(Nc2ccc(Cl)cc2)c2c1C(=O)c1ccccc1C2=O		inconclusive [inhibitor, single point]
CNc1ccc(Br)cc(C(=O)/C=C/c2ccc(OC)cc2OC)c1=O		inconclusive [inhibitor, single point]
COc1cc(/C=C(\C#N)c2nc3ccccc3[nH]2)ccc1OCc1ccc(F)cc1		inconclusive [inhibitor, partial curve]
CCOc1ccc2nc3cc(N)ccc3c(N)c2c1		inconclusive [inhibitor, partial curve]
S=C1Cc2ccccc2N1		inconclusive [inhibitor, single point]
O=C(NCCc1ccc(Cl)cc1)C1CCCO1 (centres undefined)	inactive: -2.35%	
O=C(Nc1ccccc1)Oc1ccc[nH]c1=O		active: 4.47 µM
COc1ccc(-n2c(NC(=O)c3ccco3)c(C#N)c3nc4ccccc4nc32)cc1		active: 31.6 µM
CC1(C)OCC(CSC2=C(SCC3COC(C)(C)O3)C(=O)c3ncccc3C2=O)O1 (centres undefined)		inconclusive [inhibitor, single point]
O=C1c2nc3cc(-c4ccco4)[nH]n3c(=O)c2CN1Cc1ccccc1		inconclusive [inhibitor, single point]
COc1cc2c(CCNC(C)=O)c[nH]c2cc1Cl		inconclusive [inhibitor, full curve, poor fit]
